# Reference: PubChem BioAssay (Tox21)
# Values joined by “and” are separate entries in the source; they are usually repeats but may differ in a detail not shown here. Equal entries are not always repeated. Inconclusive means that the source gave no clear call. Such entries were picked first, then a sample of the others. For some of these results: Potencies beside an inconclusive call are fits to weak or partial responses and may not hold up. Active and inactive are the calls of the source. Unless noted, calls come from the whole dose curve; as a rule, active = well fitted curve in the direction sought with a large enough effect in the repeat runs; inconclusive = weak or mixed curves; inactive = no such curve, though single readings can be large; an effect the other way counts as inactive or inconclusive.
# What was measured:
# [1] = qHTS assay for small molecule agonists of the antioxidant response element (ARE) signaling pathway (AID 743202; active = well fitted activation curve with a large enough effect in the signal ratio in the repeat runs, not every such curve was filed as active; inconclusive = weak or mixed curves, or effect the other way; inactive = no such curve, though single readings can be large or run the other way; the % refers to the signal ratio; note: potency is the fitted concentration of half-maximal effect; for activation: % is set by controls: 0 for no effect and ±100 for the full control effect); settings: HepG2 ARE-bla reporter, beta-lactamase FRET, 16 h
# Summary of the method: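 ARE-bla HepG2 cells (beta-lactamase reporter under the antioxidant response element), plated 5 hours, then exposed to compounds 16 hours at 37 C. LiveBLAzer B/G FRET substrate added for 2 hours at room temperature; fluorescence intensity read.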
# [2] = qHTS assay for small molecule agonists of the antioxidant response element (ARE) signaling pathway - cell viability counter screen (AID 743203; calls by dose curve; note: nearly all actives have a fitted effect of over 55% in size; note: potency is the fitted concentration of half-maximal effect); settings: ARE-bla HepG2 viability, CellTiter-Glo luminescence, 16 h; viability change, negative = cytotoxic: at 73.3 µM (top of the series)
# Summary of the method: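 Cells (ARE-bla HepG2, 2,000/well) receive DMSO-dissolved compounds after a 5 hrs rest. Plates incubate 16 hrs at 37C/5% CO2. CellTiter-Glo luminescence is then recorded after 30 min at room temperature.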
# [3] = qHTS assay to identify small molecule agonists of the peroxisome proliferator-activated receptor delta (PPARd) signaling pathway - cell viability counter screen (AID 743211); settings: PPARd-bla HEK293H viability, CellTiter-Glo luminescence, 17 h; activity change, negative = cytotoxicity: at 62.6 µM (top of the series); note: potency is the fitted concentration of half-maximal effect; nearly all actives have a fitted effect of over 55% in size
# Summary of the method: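 Multiplexed format: after the 2 h room-temperature LiveBLAzer B/G FRET step, CellTiter-Glo was added to the same wells. Luminescence after 30 min gave cell viability; compound exposure was 17 h at 37C.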
# [4] = qHTS assay to identify small molecule antagonists of the peroxisome proliferator-activated receptor delta (PPARd) signaling pathway - cell viability counter screen (AID 743213); settings: PPARd-bla HEK293H viability, CellTiter-Glo luminescence, 17 h; viability change, negative = cytotoxic: at 62 µM (top of the series) unless noted; note: nearly all actives have a fitted effect of over 50% in size; note: potency is the fitted concentration of half-maximal effect
# Summary of the method: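 PPARd-bla HEK293H cells were treated with compounds plus agonist L165041 (300 nM final) for 17 h at 37 C. Viability was then read in the same wells by CellTiter-Glo luminescence after 30 min at room temperature.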
# [5] = target: Bile acid receptor (Homo sapiens) (UniProt Q96RI1); test: qHTS assay to identify small molecule antagonists of the farnesoid-X-receptor (FXR) signaling pathway (AID 743217; active = well fitted inhibition curve with a large enough effect in the signal ratio in the repeat runs, not every such curve was filed as active; inconclusive = weak or mixed curves, or effect the other way; inactive = no such curve, though single readings can be large or run the other way; the % refers to the signal ratio; note: potency is the fitted concentration of half-maximal effect); settings: HEK293T FXR-UAS-bla, beta-lactamase ratio, CDCA-stimulated, 16 h; activity change, negative = inhibition: at 62.6 µM (top of the series) unless noted
# UniProt Q96RI1, sequence (Q96RI1 whole entry, looked up): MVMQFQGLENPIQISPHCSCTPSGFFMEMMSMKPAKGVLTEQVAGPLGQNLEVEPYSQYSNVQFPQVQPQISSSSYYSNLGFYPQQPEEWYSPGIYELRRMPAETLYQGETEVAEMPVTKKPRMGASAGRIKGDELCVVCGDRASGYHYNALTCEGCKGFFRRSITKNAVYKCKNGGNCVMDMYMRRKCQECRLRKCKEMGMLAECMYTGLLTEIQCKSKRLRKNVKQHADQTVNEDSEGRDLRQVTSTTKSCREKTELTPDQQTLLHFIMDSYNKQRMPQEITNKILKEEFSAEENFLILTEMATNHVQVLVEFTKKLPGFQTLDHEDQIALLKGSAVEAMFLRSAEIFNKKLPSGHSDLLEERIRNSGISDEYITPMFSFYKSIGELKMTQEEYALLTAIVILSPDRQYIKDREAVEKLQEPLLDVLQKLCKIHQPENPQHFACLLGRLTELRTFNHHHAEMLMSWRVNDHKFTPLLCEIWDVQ
# Summary of the method: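 Beta-lactamase reporter under UAS control in HEK 293T cells; compound exposure 16 h at 37 °C in the presence of chenodeoxycholic acid (50 uM final); signal from B/G FRET substrate after 2 h at room temperature.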
# [6] = qHTS assay to identify small molecule agonists of the farnesoid-X-receptor (FXR) signaling pathway - cell viability counter screen (AID 743218); settings: FXR-bla HEK293T viability, CellTiter-Glo luminescence, 16 h; viability change, negative = cytotoxic: at 62.6 µM (top of the series) unless noted; note: nearly all actives have a fitted effect of over 45% in size; note: potency is the fitted concentration of half-maximal effect
# Summary of the method: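 In GeneBLAzer FXR-UAS-bla HEK 293T cells, compounds act for 16 h at 37 C. Cell viability is then scored in the reporter wells by CellTiter-Glo, 30 min at RT, luminescence.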
# [7] = target: Bile acid receptor (Homo sapiens) (UniProt Q96RI1); test: qHTS assay to identify small molecule agonists of the farnesoid-X-receptor (FXR) signaling pathway (AID 743220; active = well fitted activation curve with a large enough effect in the signal ratio in the repeat runs, not every such curve was filed as active; inconclusive = weak or mixed curves, or effect the other way; the % refers to the signal ratio; note: % is set by controls: 0 for no effect and ±100 for the full control effect); settings: HEK293T FXR-UAS-bla, beta-lactamase FRET ratio, 16 h; activation: at 62.6 µM (top of the series)
# Summary of the method: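 Beta-lactamase reporter under UAS control in GeneBLAzer FXR HEK 293T cells (5000/well) measured with LiveBLAzer FRET substrate after 2 h at room temperature. Compound exposure lasted 16 h at 37C.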
# [8] = target: Vitamin D3 receptor (Homo sapiens) (UniProt P11473); test: qHTS assay to identify small molecule agonists of the vitamin D receptor (VDR) signaling pathway (AID 743222; calls by dose curve; note: potency is the fitted concentration of half-maximal effect); settings: HEK293T VDR-UAS-bla, beta-lactamase FRET ratio, 16 h; activation: at 63.5 µM (top of the series) unless noted
# UniProt P11473, sequence (P11473 whole entry, looked up): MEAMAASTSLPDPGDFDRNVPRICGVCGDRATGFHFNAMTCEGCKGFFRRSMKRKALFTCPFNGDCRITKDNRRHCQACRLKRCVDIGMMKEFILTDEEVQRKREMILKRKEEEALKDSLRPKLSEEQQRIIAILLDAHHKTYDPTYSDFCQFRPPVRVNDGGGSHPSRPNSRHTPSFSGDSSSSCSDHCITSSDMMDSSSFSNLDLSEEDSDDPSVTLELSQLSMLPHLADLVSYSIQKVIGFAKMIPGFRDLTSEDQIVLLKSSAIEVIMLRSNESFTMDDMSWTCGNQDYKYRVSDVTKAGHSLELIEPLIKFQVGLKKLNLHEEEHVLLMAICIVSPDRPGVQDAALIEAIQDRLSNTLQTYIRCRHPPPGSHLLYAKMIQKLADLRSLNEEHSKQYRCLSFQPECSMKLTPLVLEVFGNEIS
# Summary of the method: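 Agonist activity measured in VDR-bla reporter cells. Exposure 16 h, 37C, 5% CO2; detection by B/G FRET substrate, 2 h RT.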
# [9] = qHTS assay to identify small molecule agonists of the vitamin D receptor (VDR) signaling pathway - cell viability counter screen (AID 743224); settings: VDR-bla HEK293T viability, CellTiter-Glo luminescence, 16 h; activity change, negative = cytotoxicity: at 62.6 µM (top of the series); note: potency is the fitted concentration of half-maximal effect; nearly all actives have a fitted effect of over 50% in size
# Summary of the method: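 VDR-bla cell line, quantitative HTS format; 16 h compound incubation (37C, 5% CO2); ATP-based CellTiter-Glo luminescence measured in the reporter assay wells.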
# [10] = qHTS assay to identify small molecule antagonists of the vitamin D receptor (VDR) signaling pathway - cell viability counter screen (AID 743225); settings: VDR-bla HEK293T viability, CellTiter-Glo luminescence, 16 h; viability change, negative = cytotoxic: at 61 µM (top of the series) unless noted; note: nearly all actives have a fitted effect of over 50% in size; note: potency is the fitted concentration of half-maximal effect
# Summary of the method: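 Cytotoxicity toward the VDR-bla HEK 293T line was scored by ATP-based CellTiter-Glo luminescence, read in the wells already used for the beta-lactamase readout after 16 h compound treatment under 3 nM 1-alpha,25-dihydroxyvitamin D3 stimulation.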
# [11] = target: Peroxisome proliferator-activated receptor delta (Homo sapiens) (UniProt Q03181); test: qHTS assay to identify small molecule antagonists of the peroxisome proliferator-activated receptor delta (PPARd) signaling pathway (AID 743215; active = well fitted inhibition curve with a large enough effect in the signal ratio in the repeat runs, not every such curve was filed as active; inconclusive = weak or mixed curves, or effect the other way; inactive = no such curve, though single readings can be large or run the other way; the % refers to the signal ratio;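 note: cells stimulated with agonist L165041 at 300 nM final during compound exposure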; note: potency is the fitted concentration of half-maximal effect; for ratio activity, negative = inhibition: % is set by controls: 0 for no effect and ±100 for the full control effect); settings: HEK293H PPARd-UAS-bla, beta-lactamase FRET ratio, antagonist, 17 h; ratio activity, negative = inhibition: at 62 µM (top of the series) unless noted
# UniProt Q03181, sequence (Q03181 whole entry, looked up): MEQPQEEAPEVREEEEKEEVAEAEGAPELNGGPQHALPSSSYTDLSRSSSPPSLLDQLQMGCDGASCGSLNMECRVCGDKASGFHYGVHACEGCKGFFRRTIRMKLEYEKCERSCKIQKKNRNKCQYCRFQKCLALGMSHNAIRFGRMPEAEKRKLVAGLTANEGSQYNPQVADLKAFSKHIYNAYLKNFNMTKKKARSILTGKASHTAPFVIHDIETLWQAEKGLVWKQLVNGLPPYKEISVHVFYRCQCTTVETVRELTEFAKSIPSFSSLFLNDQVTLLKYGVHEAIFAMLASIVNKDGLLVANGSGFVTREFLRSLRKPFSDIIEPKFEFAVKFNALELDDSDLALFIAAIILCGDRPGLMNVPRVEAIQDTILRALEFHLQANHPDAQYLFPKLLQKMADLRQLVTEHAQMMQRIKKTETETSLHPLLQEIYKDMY
# Summary of the method: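 Antagonist-mode beta-lactamase reporter screen: HEK293H cells with UAS-bla under PPARd control, stimulated by 300 nM L165041 (final) alongside test compound for 17 h at 37 C, then FRET fluorescence after 2 h substrate incubation.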
# [12] = qHTS assay for small molecule activators of the heat shock response signaling pathway (AID 743210; active = well fitted activation curve with a large enough effect in the signal ratio in the repeat runs, with a control signal flat, not every such curve was filed as active; inconclusive = weak or mixed curves; the % refers to the signal ratio; note: potency is the fitted concentration of half-maximal effect); settings: HeLa HSE-bla reporter, beta-lactamase ratio, 5 h; activation: at 62.6 µM (top of the series) unless noted
# Summary of the method: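 HSE-bla HeLa cells (beta-lactamase reporter under heat shock response elements), plated overnight, then exposed to compounds 5 h at 37 C; LiveBLAzer B/G FRET substrate added, 2.5 h at room temperature, fluorescence intensity read.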
# [13] = qHTS assay to identify small molecule antagonists of the farnesoid-X-receptor (FXR) signaling pathway - cell viability counter screen (AID 743221; active = well fitted cell-killing curve with a large enough effect in the repeat runs, not every such curve was filed as active; inconclusive = weak or mixed curves, or effect the other way; inactive = no such curve, though single readings can be large or run the other way; note: % is set by controls: 0 for no effect and ±100 for the full control effect; nearly all actives have a fitted effect of over 50% in size); settings: FXR-bla HEK293T viability, CellTiter-Glo luminescence, 16 h; activity change, negative = cytotoxicity: at 62.6 µM (top of the series) unless noted
# Summary of the method: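 CellTiter-Glo, 30 min RT, luminescence; same wells as the LiveBLAzer FRET read. Cells: FXR-UAS-bla HEK 293T. Treatment: compound with chenodeoxycholic acid 50 uM final, 16 h at 37 C.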
# [14] = target: Vitamin D3 receptor (Homo sapiens) (UniProt P11473); test: qHTS assay to identify small molecule antagonists of the vitamin D receptor (VDR) signaling pathway (AID 743223; active = well fitted inhibition curve with a large enough effect in the signal ratio in the repeat runs, not every such curve was filed as active; inconclusive = weak or mixed curves, or effect the other way; inactive = no such curve, though single readings can be large or run the other way; the % refers to the signal ratio; note: potency is the fitted concentration of half-maximal effect); settings: VDR-UAS-bla HEK293T, beta-lactamase FRET ratio, 16 h; activity change, negative = inhibition: at 61 µM (top of the series) unless noted
# Summary of the method: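 After VDR-bla cells are plated and left 4 h at 37C, DMSO-dissolved compounds and 3 nM (final) calcitriol agonist are added. Incubation continues 16 h at 37C; FRET beta-lactamase substrate then develops 2 h at room temperature.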
# [15] = qHTS assay for small molecule activators of the heat shock response signaling pathway - cell viability counter screen (AID 743209); settings: HSE-bla HeLa viability, CellTiter-Glo luminescence, 5 h; activity change, negative = cytotoxicity: at 62.6 µM (top of the series)
# Summary of the method: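 Quantitative HTS format, Tox21 10K library. HeLa cells carrying an HSE-driven beta-lactamase reporter were treated 5 h at 37 C, then assessed for viability by CellTiter-Glo luminescence.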
# [16] = target: Peroxisome proliferator-activated receptor delta (Homo sapiens) (UniProt Q03181); test: qHTS assay to identify small molecule agonists of the peroxisome proliferator-activated receptor delta (PPARd) signaling pathway (AID 743212; calls by dose curve; note: % is set by controls: 0 for no effect and ±100 for the full control effect); settings: HEK293H PPARd-UAS-bla, beta-lactamase FRET ratio, 17 h; activation: at 62.6 µM (top of the series) unless noted
# Summary of the method: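 GeneBLAzer UAS-bla HEK293H cells carrying a PPARδ construct were exposed to compounds at 37 °C. Beta-lactamase activity was read by FRET fluorescence after 2 h at room temperature with LiveBLAzer B/G substrate.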
# [17] = activation: at 73.3 µM (top of the series) unless noted
# Tags give direction and shape of the fitted curve or compound fluorescence and quenching.
compound,measurement,setting,value
Cc1oc2c(NC(=O)c3c(Cl)cccc3Cl)cccc2c1C(C)(C)O,Potency,[1]; [17],"inconclusive: 15.4 µM [rising, partial curve]"
same,Potency,[2],"inconclusive: 61.1 µM [cytotoxic, partial curve]"
same,Potency,[3],"inconclusive: 13.8 µM [cytotoxic, full curve]"
same,Potency,[4],"inconclusive: 19.5 µM [cytotoxic, partial curve, poor fit]"
same,Potency,[5],active: 38.9 µM
same,Potency,[6],active: 21.9 µM
same,Potency,[7],inactive
same,Potency,[8],"inconclusive: 9.77 µM [rising, partial curve, poor fit]"
same,Potency,[9],"inconclusive: 12.3 µM [cytotoxic, partial curve]"
same,Potency,[10],"inconclusive: 4.36 µM [cytotoxic, single point]"
O=[N+]([O-])c1ccc(O)cc1C(F)(F)F,activation,[1]; [17],inconclusive: -18%
same,Potency,[2],"inconclusive: 27.3 µM [cytotoxic, partial curve, poor fit]"
same,Potency,[3],"inconclusive: 7.76 µM [cytotoxic, full curve, poor fit]"
same,Potency,[11],inactive
same,Potency,[9],"inconclusive: 34.7 µM [cytotoxic, partial curve]"
same,"viability change, negative = cytotoxic",[10],inconclusive: -16.3% [cytotoxic]
Cc1ncc([N+](=O)[O-])n1CCO,activation,[1]; [17],inconclusive: -25.7%
same,activation,[1]; at 73.3 µM (top of the series),inactive: -8.97%
same,activation,[1]; at 94.8 µM (top of the series),inactive: -1.35%
same,Potency,[6],inactive
COc1cc(NC(=O)CC(C)=O)c(OC)cc1Cl,activation,[1]; at 73.3 µM (top of the series),inconclusive: 27.5%
same,activation,[1]; at 94.8 µM (top of the series),inconclusive: 36.8%
same,Potency,[4],"inactive and inconclusive: 27.5 µM [cytotoxic, partial curve]"
C=Cc1ccc(C)cc1,activation,[1]; [17],inconclusive: 2.55%
same,activation,[1]; at 94.8 µM (top of the series),inactive: -5.01%
same,Potency,[12],inactive
same,Potency,[4],"inconclusive: 0.504 µM [cytotoxic, single point]"
same,"activity change, negative = cytotoxicity",[13],inconclusive: 9% [at 81.1 µM]
same,Potency,[8],inactive
same,Potency,[14],inactive
same,Potency,[10],"inconclusive: 0.201 µM [cytotoxic, single point]"
CCN(CC)CCOC(=O)C1(c2ccccc2)CCCC1,Potency,[1]; [17],inactive
CCCCCCCCCCC,activation,[1]; [17],inconclusive: 11.2%
CC(=O)Oc1ccc(C)cc1,activation,[1]; [17],inconclusive: -0.048%
same,activation,[1]; at 73.3 µM (top of the series),inactive: -4.75%
same,Potency,[2],inactive
same,Potency,[10],"inconclusive: 15.5 µM [rising, partial curve, poor fit]"
C/C=C/c1ccc(OC)cc1,Potency,[1]; [17],inactive and inconclusive: 62.4 µM [single point]
same,Potency,[2],"inconclusive: 62.4 µM [cytotoxic, partial curve, poor fit]"
same,Potency,[4],"inconclusive: 506 nM [cytotoxic, single point] and inconclusive: 94.4 nM [cytotoxic, full curve, poor fit]"
same,Potency,[11],"inconclusive: 0.158 µM [rising, full curve, poor fit]"
same,"ratio activity, negative = inhibition",[11],inconclusive: -15.7%
same,Potency,[6],"inconclusive: 1.43 µM [rising, full curve]"
CC(=O)OC/C=C(\C)CC/C=C(\C)CCC=C(C)C,activation,[1]; [17],inconclusive: 46.3%
same,Potency,[2],inactive
same,Potency,[12],"inconclusive: 61.7 µM [falling, partial curve, poor fit]"
same,"activity change, negative = inhibition",[14],inconclusive: 0.613%
CNNCc1ccc(C(=O)NC(C)C)cc1,Potency,[1]; [17],"inconclusive: 23.7 µM [rising, partial curve]"
same,Potency,[2],inactive
same,Potency,[14],inactive
O=C(NCC1CCCCN1)c1cc(OCC(F)(F)F)ccc1OCC(F)(F)F (stereo unspecified),activation,[1]; [17],inconclusive: -15.2%
same,Potency,[2],inactive
same,Potency,[15],"inconclusive: 0.0027 µM [cytotoxic, full curve, poor fit]"
same,"viability change, negative = cytotoxic",[4],inconclusive: -39% [cytotoxic]
same,activation,[8],inconclusive: -17.1%
same,Potency,[14],inactive
same,Potency,[9],"inconclusive: 53.9 µM [cytotoxic, partial curve, poor fit]"
same,Potency,[10],"inconclusive: 15.2 µM [cytotoxic, partial curve, poor fit] and inactive"
O=C1[C@H](CC[C@H](O)c2ccc(F)cc2)[C@@H](c2ccc(O)cc2)N1c1ccc(F)cc1,Potency,[1]; [17],"inconclusive: 23.7 µM [rising, partial curve]"
same,Potency,[2],"inconclusive: 0.298 µM [cytotoxic, single point]"
same,Potency,[12],inactive
same,activation,[16],inconclusive: 2.12%
same,Potency,[14],inactive
Cc1noc(NS(=O)(=O)c2ccc(N)cc2)c1C,activation,[1]; [17],inconclusive: 18.6%
same,activation,[1]; at 73.3 µM (top of the series),inactive: 4.23% and inactive: 12.3%
same,Potency,[3],"inconclusive: 3.35 µM [cytotoxic, single point]"
same,"ratio activity, negative = inhibition",[11],inconclusive: -21.8%
same,Potency,[6],"inconclusive: 0.0025 µM [rising, full curve, poor fit]"
CCN(CC)CCCC(C)Nc1ccnc2cc(Cl)ccc12 (stereo unspecified),Potency,[1]; [17],"inconclusive: 13 µM [falling, partial curve]"
same,activation,[1]; [17],inactive: -11.9% [at 8.36 µM]
same,Potency,[2],"inconclusive: 14.6 µM [cytotoxic, partial curve, poor fit]"
same,Potency,[4],"inconclusive: 2.31 µM [cytotoxic, full curve, poor fit]"
same,Potency,[6],"inconclusive: 84.9 nM [cytotoxic, partial curve, poor fit] and inactive"
same,Potency,[14],"inconclusive: 6.57 µM [inhibitor, single point]"
same,"activity change, negative = inhibition",[14],inactive: 1.54% [at 6.95 µM]
same,Potency,[10],"inconclusive: 1.34 µM [cytotoxic, partial curve]"
